Source: patent US7772236B2, “Substituted pyrazoles” (Ortho McNeil Pharmaceutical, Inc., priority 2000, dated 2010)

These compounds were tested against Recombinant human cathepsin S (CatS) (Homo sapiens, UniProt P25774) (assay: biochemical).

IC50	Structure (SMILES)
4500 nM	CC(=O)N1CCc2c(c(-c3cccc(Cl)c3)nn2CC(O)CN2CCN(c3ccccc3C#N)CC2)C1 (stereo not drawn) [Example 170, 2-(4-{3-[5-Acetyl-3-(3-chloro-phenyl)-4,5,6,7-tetrahydro-pyrazolo[4,3-c]pyridin-1-yl]-2-hydroxy-propyl}-piperazin-1-yl)-benzonitrile]
1700 nM	CC(=O)N1CCc2c(c(-c3ccc(Cl)cc3)nn2CC(CN2CCN(c3ccccc3C)CC2)OCC#N)C1 (stereo not drawn) [Example 181, [1-[5-Acetyl-3-(4-chloro-phenyl)-4,5,6,7-tetrahydro-pyrazolo[4,3-c]pyridin-1-ylmethyl]-2-(4-o-tolyl-piperazin-1-yl)-ethoxy]-acetonitrile]
2200 nM	COc1ccccc1N1CCN(CC(O)Cn2nc(-c3ccc4ccccc4c3)c3c2CCN(C(C)=O)C3)CC1 (stereo not drawn) [Example 131, 1-(1-{2-Hydroxy-3-[4-(2-methoxy-phenyl)-piperazin-1-yl]-propyl}-3-naphthalen-2-yl-1,4,6,7-tetrahydro-pyrazolo[4,3-c]pyridin-5-yl)-ethanone]
1400 nM	COc1ccccc1N1CCN(CC(O)Cn2nc(-c3ccc([N+](=O)[O-])cc3)c3c2CCN(C(C)=O)C3)CC1 (stereo not drawn) [Example 141, 1-[1-{2-Hydroxy-3-[4-(2-methoxy-phenyl)-piperazin-1-yl]-propyl}-3-(4-nitro-phenyl)-1,4,6,7-tetrahydro-pyrazolo[4,3-c]pyridin-5-yl]-ethanone]
2900 nM	CC(=O)N1CCc2c(c(-c3ccc(Cl)cc3)nn2CC(O)CN2CCN(c3ncccn3)CC2)C1 (stereo not drawn) [Example 156, 1-{3-(4-Chloro-phenyl)-1-[2-hydroxy-3-(4-pyrimidin-2-yl-piperazin-1-yl)-propyl]-1,4,6,7-tetrahydro-pyrazolo[4,3-c]pyridin-5-yl}-ethanone]
820 nM	CC(=O)N1CCc2c(c(-c3ccc(S(C)(=O)=O)cc3)nn2CC(O)CN2CCN(c3ccccc3C#N)CC2)C1 (stereo not drawn) [Example 221, 2-(4-{3-[5-Acetyl-3-(4-methanesulfonyl-phenyl)-4,5,6,7-tetrahydro-pyrazolo[4,3-c]pyridin-1-yl]-2-hydroxy-propyl}-piperazin-1-yl)-benzonitrile]
340 nM	CC(=O)N1CCc2c(c(-c3ccc(C(F)(F)F)cc3)nn2CC(O)CN2CCN(c3c([N+](=O)[O-])cccc3[N+](=O)[O-])CC2)C1 (stereo not drawn) [Example 306, 1-[1-{3-[4-(2,6-Dinitro-phenyl)-piperazin-1-yl]-2-hydroxy-propyl}-3-(4-trifluoromethyl-phenyl)-1,4,6,7-tetrahydro-pyrazolo[4,3-c]pyridin-5-yl]-ethanone]
790 nM	Cc1ccccc1N1CCN(CC(O)Cn2nc(-c3ccc(I)cc3)c3c2CCN(C(=O)OC(C)(C)C)C3)CC1 (stereo not drawn) [Example 192, 1-[2-Hydroxy-3-(4-o-tolyl-piperazin-1-yl)-propyl]-3-(4-iodo-phenyl)-1,4,6,7-tetrahydro-pyrazolo[4,3-c]pyridine-5-carboxylic acid tert-butyl ester]
4300 nM	COc1ccccc1N1CCN(CC(O)Cn2nc(-c3ccc(C)cc3)c3c2CCN(C(C)=O)C3)CC1 (stereo not drawn) [Example 121, 1-(1-{2-Hydroxy-3-[4-(2-methoxy-phenyl)-piperazin-1-yl]-propyl}-3-p-tolyl-1,4,6,7-tetrahydro-pyrazolo[4,3-c]pyridin-5-yl)-ethanone]
2500 nM	Brc1ccc(-c2nn(CCCN3CCN(c4nsc5ccccc45)CC3)c3c2CNCC3)cc1 [Example 281, 1-[3-(4-Benzo[d]isothiazol-3-yl-piperazin-1-yl)-propyl]-3-(4-bromo-phenyl)-4,5,6,7-tetrahydro-1H-pyrazolo[4,3-c]pyridine]
400 nM	CC(=O)N1CCc2c(c(-c3ccc(Cl)c(Cl)c3)nn2CC(O)CN2CCN(c3ccccc3C#N)CC2)C1 (stereo not drawn) [Example 255, 2-(4-{3-[5-Acetyl-3-(3,4-dichloro-phenyl)-4,5,6,7-tetrahydro-pyrazolo[4,3-c]pyridin-1-yl]-2-hydroxy-propyl}-piperazin-1-yl)-benzonitrile]
400 nM	CC(=O)N1CCc2c(c(-c3ccc(C(F)(F)F)cc3)nn2CCCN2CCN(c3c(Cl)cncc3Cl)CC2)C1 [Example 310, 1-[1-{3-[4-(3,5-Dichloro-pyridin-4-yl)-piperazin-1-yl]-propyl}-3-(4-trifluoromethyl-phenyl)-1,4,6,7-tetrahydro-pyrazolo[4,3-c]pyridin-5-yl]-ethanone]
860 nM	CC(=O)N1CCc2c(c(-c3ccc(Cl)cc3)nn2CC(O)CN2CCN(c3cccc(C)c3)C(C)C2)C1 (stereo not drawn) [Example 149, 1-{3-(4-Chloro-phenyl)-1-[2-hydroxy-3-(3-methyl-4-m-tolyl-piperazin-1-yl)-propyl]-1,4,6,7-tetrahydro-pyrazolo[4,3-c]pyridin-5-yl}-ethanone]
1300 nM	CC(=O)N1CCc2c(c(-c3ccc(Cl)c(N)c3)nn2CC(O)CN2CCN(c3ccccc3C#N)CC2)C1 (stereo not drawn) [Example 216, 2-(4-{3-[5-Acetyl-3-(3-amino-4-chloro-phenyl)-4,5,6,7-tetrahydro-pyrazolo[4,3-c]pyridin-1-yl]-2-hydroxy-propyl}-piperazin-1-yl)-benzonitrile]
220 nM	COc1ccccc1N1CCN(CCCn2nc(-c3ccc(C(F)(F)F)cc3)c3c2CCN(S(C)(=O)=O)C3)CC1 [Example 267, 5-Methanesulfonyl-1-{3-[4-(2-methoxy-phenyl)-piperazin-1-yl]-propyl}-3-(4-trifluoromethyl-phenyl)-4,5,6,7-tetrahydro-1H-pyrazolo[4,3-c]pyridine]
390 nM	CC(=O)N1CCc2c(c(-c3ccc(C(F)(F)F)cc3)nn2CC(CN2CCN(c3ccccc3C#N)CC2)OCCN2CCOCC2)C1 (stereo not drawn) [Example 258, 2-{4-[3-[5-Acetyl-3-(4-trifluoromethyl-phenyl)-4,5,6,7-tetrahydro-pyrazolo[4,3-c]pyridin-1-yl]-2-(2-morpholin-4-yl-ethoxy)-propyl]-piperazin-1-yl}-benzonitrile]

Structure (SMILES)	IC50
CC(=O)N1CCc2c(c(-c3ccc(Cl)cc3)nn2CC(O)CN2CCN(c3ccccc3C)CC2)C1 (stereo not drawn) [Example 2, 1-{3-(4-Chloro-phenyl)-1-[2-hydroxy-3-(4-o-tolyl-piperazin-1-yl)-propyl]-1,4,6,7-tetrahydro-pyrazolo[4,3-c]pyridin-5-yl}-ethanone]	1220 nM
N#Cc1ccccc1N1CCN(CC(O)Cn2nc(-c3ccc(I)cc3)c3c2CCN(C(N)=O)C3)CC1 (stereo not drawn) [Example 10, 1-{3-[4-(2-Cyano-phenyl)-piperazin-1-yl]-2-hydroxy-propyl}-3-(4-iodo-phenyl)-1,4,6,7-tetrahydro-pyrazolo[4,3-c]pyridine-5-carboxylic acid amide]	50 nM
CC(=O)N1CCc2c(c(-c3ccc(Cl)c(N)c3)nn2CC(O)CN2CCN(c3ccccc3C)CC2)C1 (stereo not drawn) [Example 12, 1-{3-(3-Amino-4-chloro-phenyl)-1-[2-hydroxy-3-(4-o-tolyl-piperazin-1-yl)-propyl]-1,4,6,7-tetrahydro-pyrazolo[4,3-c]pyridin-5-yl}-ethanone]	980 nM
CC(=O)N1CCc2c(c(-c3ccc(Br)cc3)nn2C[C@H](O)CN2CCN(c3cc(Cl)ccc3C)CC2)C1 [Example 13, (R)-1-(3-(4-Bromo-phenyl)-1-{3-[4-(5-chloro-2-methyl-phenyl)-piperazin-1-yl]-2-hydroxy-propyl}-1,4,6,7-tetrahydro-pyrazolo[4,3-c]pyridin-5-yl)-ethanone]	770 nM
CNC(=O)Nc1cccc(Cl)c1N1CCN(CCCn2nc(-c3ccc(C(F)(F)F)cc3)c3c2CCN(S(C)(=O)=O)C3)CC1 [Example 26, 1-[3-Chloro-2-(4-{3-[5-methanesulfonyl-3-(4-trifluoromethyl-phenyl)-4,5,6,7-tetrahydro-pyrazolo[4,3-c]pyridin-1-yl]-propyl}-piperazin-1-yl)-phenyl]-3-methyl-urea]	40 nM
CS(=O)(=O)Nc1cccc(Cl)c1N1CCN(CCCn2nc(-c3ccc(C(F)(F)F)cc3)c3c2CCN(C(N)=O)C3)CC1 [Example 31, 1-{3-[4-(2-Chloro-6-methanesulfonylamino-phenyl)-piperazin-1-yl]-propyl}-3-(4-trifluoromethyl-phenyl)-1,4,6,7-tetrahydro-pyrazolo[4,3-c]pyridine-5-carboxylic acid amide]	100 nM
CS(=O)(=O)N1CCc2c(c(-c3ccc(C(F)(F)F)cc3)nn2CCCN2CCN(c3ccccc3[N+](=O)[O-])CC2)C1 [Example 16, 5-Methanesulfonyl-1-{3-[4-(2-nitro-phenyl)-piperazin-1-yl]-propyl}-3-(4-trifluoromethyl-phenyl)-4,5,6,7-tetrahydro-1H-pyrazolo[4,3-c]pyridine]	60 nM
COC(=O)c1cccc([N+](=O)[O-])c1N1CCN(CC(O)Cn2nc(-c3ccc(C(F)(F)F)cc3)c3c2CCN(C(C)=O)C3)CC1 (stereo not drawn) [Example 34, 2-(4-{3-[5-Acetyl-3-(4-trifluoromethyl-phenyl)-4,5,6,7-tetrahydro-pyrazolo[4,3-c]pyridin-1-yl]-2-hydroxy-propyl}-piperazin-1-yl)-3-nitro-benzoic acid methyl ester]	110 nM
NC(=O)N1CCc2c(c(-c3ccc(Br)cc3)nn2CCCN2CCN(c3nsc4ccccc34)CC2)C1 [Example 33, 1-[3-(4-Benzo[d]isothiazol-3-yl-piperazin-1-yl)-propyl]-3-(4-bromo-phenyl)-1,4,6,7-tetrahydro-pyrazolo[4,3-c]pyridine-5-carboxylic acid amide]	100 nM
COC(=O)C(=O)N1CCc2c(c(-c3ccc(Cl)c(C)c3)nn2CC(O)CN2CCN(c3ccccc3C#N)CC2)C1 (stereo not drawn) [Example 15, (3-(4-Chloro-3-methyl-phenyl)-1-{3-[4-(2-cyano-phenyl)-piperazin-1-yl]-2-hydroxy-propyl}-1,4,6,7-tetrahydro-pyrazolo[4,3-c]pyridin-5-yl)-oxo-acetic acid methyl ester]	120 nM
CS(=O)(=O)N1CCc2c(c(-c3ccc(C(F)(F)F)cc3)nn2CC(O)CN2CCN(c3c(N)cccc3Cl)CC2)C1 (stereo not drawn) [Example 25, 1-[4-(2-Amino-6-chloro-phenyl)-piperazin-1-yl]-3-[5-methanesulfonyl-3-(4-trifluoromethyl-phenyl)-4,5,6,7-tetrahydro-pyrazolo[4,3-c]pyridin-1-yl]-propan-2-ol]	40 nM
